This is one part of the list.
Legend:
Test in all cases: glycan array binding signal (z-score within array); higher = stronger binding
Conditions in all cases: glycan notation: IUPAC condensed, linker removed
Fuc(a1-2)Gal = molecular target: Fuc(a1-2)Gal
Method in brief: (§1)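 The Consortium for Functional Glycomics database supplied 3228 glycan arrays, of which those lacking an available protein sequence were dropped. The binding signal, a within-array Z-score, was averaged across arrays of the same protein sequence and across linkers. Negative scores can be read as non-binding.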

Fuc(a1-2)Gal(b1-3)GalNAc = molecular target: Fuc(a1-2)Gal(b1-3)GalNAc
Method in brief: as §1

[1] = molecular target: Fuc(a1-2)Gal(b1-3)GalNAc(b1-3)Gal
Method in brief: as §1

[2] = molecular target: Fuc(a1-2)Gal(b1-3)GalNAc(b1-3)Gal(a1-4)Gal(b1-4)Glc
Method in brief: as §1

[3] = molecular target: Fuc(a1-2)Gal(b1-3)GalNAc(b1-4)[Neu5Ac(a2-3)]Gal(b1-4)Glc
Method in brief: as §1

Fuc(a1-2)Gal(b1-3)GlcNAc = molecular target: Fuc(a1-2)Gal(b1-3)GlcNAc
Method in brief: as §1

[4] = molecular target: Fuc(a1-2)Gal(b1-3)GlcNAc(b1-3)Gal(b1-4)Glc
Method in brief: as §1

[5] = molecular target: Fuc(a1-2)Gal(b1-3)[Fuc(a1-4)]GlcNAc
Method in brief: as §1

Fuc(a1-2)Gal(b1-4)Glc = molecular target: Fuc(a1-2)Gal(b1-4)Glc
Method in brief: as §1

Fuc(a1-2)Gal(b1-4)GlcNAc = molecular target: Fuc(a1-2)Gal(b1-4)GlcNAc
Method in brief: as §1

[6] = molecular target: Fuc(a1-2)Gal(b1-4)GlcNAc(b1-3)Gal(b1-4)GlcNAc
Method in brief: as §1

[7] = molecular target: Fuc(a1-2)Gal(b1-4)GlcNAc(b1-3)Gal(b1-4)GlcNAc(b1-3)Gal(b1-4)GlcNAc
Method in brief: as §1

[8] = molecular target: Fuc(a1-2)Gal(b1-4)[Fuc(a1-3)]GlcNAc
Method in brief: as §1

[9] = molecular target: Fuc(a1-2)Gal(b1-4)[Fuc(a1-3)]GlcNAc(b1-3)Gal(b1-4)[Fuc(a1-3)]GlcNAc
Method in brief: as §1

[10] = molecular target: Fuc(a1-2)Gal(b1-4)[Fuc(a1-3)]GlcNAc(b1-3)Gal(b1-4)[Fuc(a1-3)]GlcNAc(b1-3)Gal(b1-4)[Fuc(a1-3)]GlcNAc
Method in brief: as §1

Fuc(a1-2)GlcNAc = molecular target: Fuc(a1-2)GlcNAc
Method in brief: as §1

Fuc(a1-2)[Gal(a1-3)]Gal = molecular target: Fuc(a1-2)[Gal(a1-3)]Gal
Method in brief: as §1

[11] = molecular target: Fuc(a1-2)[Gal(a1-3)]Gal(b1-3)GlcNAc
Method in brief: as §1

[12] = molecular target: Fuc(a1-2)[Gal(a1-3)]Gal(b1-4)Glc
Method in brief: as §1

[13] = molecular target: Fuc(a1-2)[Gal(a1-3)]Gal(b1-4)GlcNAc
Method in brief: as §1

[14] = molecular target: Fuc(a1-2)[Gal(a1-3)]Gal(b1-4)[Fuc(a1-3)]GlcNAc
Method in brief: as §1

[15] = molecular target: Fuc(a1-2)[Gal(a1-4)]Gal(b1-4)GlcNAc
Method in brief: as §1

[16] = molecular target: Fuc(a1-2)[GalNAc(a1-3)]Gal
Method in brief: as §1

[17] = molecular target: Fuc(a1-2)[GalNAc(a1-3)]Gal(b1-3)GlcNAc
Method in brief: as §1

[18] = molecular target: Fuc(a1-2)[GalNAc(a1-3)]Gal(b1-4)Glc
Method in brief: as §1

[19] = molecular target: Fuc(a1-2)[GalNAc(a1-3)]Gal(b1-4)GlcNAc
Method in brief: as §1

[20] = molecular target: Fuc(a1-2)[GalNAc(a1-3)]Gal(b1-4)[Fuc(a1-3)]GlcNAc
Method in brief: as §1

[21] = molecular target: Fuc(a1-2)[GalNAc(a1-4)]Gal(b1-4)GlcNAc
Method in brief: as §1

[22] = molecular target: Fuc(a1-2)[GalNAc(b1-3)]Gal
Method in brief: as §1

Fuc(a1-3)GlcNAc = molecular target: Fuc(a1-3)GlcNAc
Method in brief: as §1

[23] = molecular target: Fuc(a1-3)[Gal(b1-4)]GlcNAc
Method in brief: as §1

[24] = molecular target: Fuc(a1-3)[Gal(b1-4)]GlcNAc(b1-4)Gal(b1-4)[Fuc(a1-3)]GlcNAc
Method in brief: as §1

[25] = molecular target: Fuc(a1-3)[Gal(b1-4)]GlcNAc(b1-4)Gal(b1-4)[Fuc(a1-3)]GlcNAc(b1-4)Gal(b1-4)[Fuc(a1-3)]GlcNAc
Method in brief: as §1

[26] = molecular target: Fuc(a1-3)[Gal3S(b1-4)]GlcNAc
Method in brief: as §1

[27] = molecular target: Fuc(a1-3)[GalNAc(b1-4)]GlcNAc
Method in brief: as §1

Fuc(a1-4)GlcNAc = molecular target: Fuc(a1-4)GlcNAc
Method in brief: as §1

Fuc(b1-3)GlcNAc = molecular target: Fuc(b1-3)GlcNAc
Method in brief: as §1

Gal(a1-2)Gal = molecular target: Gal(a1-2)Gal
Method in brief: as §1

Gal(a1-3)Gal = molecular target: Gal(a1-3)Gal
Method in brief: as §1

Gal(a1-3)Gal(b1-3)GlcNAc = molecular target: Gal(a1-3)Gal(b1-3)GlcNAc
Method in brief: as §1

Gal(a1-3)Gal(b1-4)Glc = molecular target: Gal(a1-3)Gal(b1-4)Glc
Method in brief: as §1

Gal(a1-3)Gal(b1-4)GlcNAc = molecular target: Gal(a1-3)Gal(b1-4)GlcNAc
Method in brief: as §1

[28] = molecular target: Gal(a1-3)Gal(b1-4)[Fuc(a1-3)]GlcNAc
Method in brief: as §1

Gal(a1-3)GalNAc = molecular target: Gal(a1-3)GalNAc
Method in brief: as §1

[29] = molecular target: Gal(a1-3)[Gal(a1-4)]Gal(b1-4)GlcNAc
Method in brief: as §1

Gal(a1-4)Gal(b1-4)Glc = molecular target: Gal(a1-4)Gal(b1-4)Glc
Method in brief: as §1

Gal(a1-4)Gal(b1-4)GlcNAc = molecular target: Gal(a1-4)Gal(b1-4)GlcNAc
Method in brief: as §1

Gal(a1-4)GlcNAc = molecular target: Gal(a1-4)GlcNAc
Method in brief: as §1

Gal(a1-6)Glc = molecular target: Gal(a1-6)Glc
Method in brief: as §1

Gal(b1-2)Gal = molecular target: Gal(b1-2)Gal
Method in brief: as §1

Gal(b1-3)Gal = molecular target: Gal(b1-3)Gal
Method in brief: as §1

Gal(b1-3)GalNAc = molecular target: Gal(b1-3)GalNAc
Method in brief: as §1

[30] = molecular target: Gal(b1-3)GalNAc(b1-3)Gal(a1-4)Gal(b1-4)Glc
Method in brief: as §1

[31] = molecular target: Gal(b1-3)GalNAc(b1-4)Gal(b1-4)Glc
Method in brief: as §1

[32] = molecular target: Gal(b1-3)GalNAc(b1-4)[Neu5Ac(a2-3)]Gal(b1-4)Glc
Method in brief: as §1

Gal(b1-3)GlcNAc = molecular target: Gal(b1-3)GlcNAc
Method in brief: as §1

[33] = molecular target: Gal(b1-3)GlcNAc(b1-3)Gal(b1-4)Glc
Method in brief: as §1

[34] = molecular target: Gal(b1-3)GlcNAc(b1-3)Gal(b1-4)GlcNAc
Method in brief: as §1

[35] = molecular target: Gal(b1-3)[Fuc(a1-4)]GlcNAc
Method in brief: as §1

[36] = molecular target: Gal(b1-3)[Fuc(a1-4)]GlcNAc(b1-3)Gal(b1-4)GlcNAc
Method in brief: as §1

B1: FaeGac (Escherichia coli) (protein)
chain: WMTGDFNGSVDIGGSITADDYRQKWEWKVGTGLNGFGNVLNDLTNGGTKLTITVTGNKPILLGRTKEAFATPVTGGVDGIPHIAFTDYEGASVVLRKPDGETNKNGLAYFVLPMKNAGGTKVGSVKVNASYAGVLGRGGVTSADGELLSLFADGLSSIFYGGLPRGSELSAGSAAAARTKLFGSLSRDDILGQIQRVNANVTSLVDVAGSYRENMEYTDGNVVSAAYALGIANGQTIEATFNQAVTTSTQWSAPLNVAITYY
glycan array binding signal (z-score) (Fuc(a1-2)Gal): -0.594 | glycan array binding signal (z-score) (Fuc(a1-2)Gal(b1-3)GalNAc): -0.804 | glycan array binding signal (z-score) [1]: -0.477 | glycan array binding signal (z-score) [2]: 2.33 | glycan array binding signal (z-score) [3]: -0.669 | glycan array binding signal (z-score) (Fuc(a1-2)Gal(b1-3)GlcNAc): -0.857 | glycan array binding signal (z-score) [4]: -0.584 | glycan array binding signal (z-score) [5]: -0.258 | glycan array binding signal (z-score) (Fuc(a1-2)Gal(b1-4)Glc): -0.709 | glycan array binding signal (z-score) (Fuc(a1-2)Gal(b1-4)GlcNAc): -0.638 | glycan array binding signal (z-score) [6]: 0.856 | glycan array binding signal (z-score) [7]: 0.112 | glycan array binding signal (z-score) [8]: -0.41 | glycan array binding signal (z-score) [9]: -0.232 | glycan array binding signal (z-score) [10]: 0.118 | glycan array binding signal (z-score) (Fuc(a1-2)GlcNAc): -0.655 | glycan array binding signal (z-score) (Fuc(a1-2)[Gal(a1-3)]Gal): -0.887 | glycan array binding signal (z-score) [11]: -0.887 | glycan array binding signal (z-score) [12]: 0.407 | glycan array binding signal (z-score) [13]: -0.879 | glycan array binding signal (z-score) [14]: -0.768 | glycan array binding signal (z-score) [15]: 0.005 | glycan array binding signal (z-score) [16]: -0.835 | glycan array binding signal (z-score) [17]: -0.94 | glycan array binding signal (z-score) [18]: -0.557 | glycan array binding signal (z-score) [19]: -0.718 | glycan array binding signal (z-score) [20]: -0.944 | glycan array binding signal (z-score) [21]: -0.199 | glycan array binding signal (z-score) [22]: -0.328 | glycan array binding signal (z-score) (Fuc(a1-3)GlcNAc): 1.05 | glycan array binding signal (z-score) [23]: -0.598 | glycan array binding signal (z-score) [24]: 0.664 | glycan array binding signal (z-score) [25]: -0.479 | glycan array binding signal (z-score) [26]: -0.821 | glycan array binding signal (z-score) [27]: 1.98 | glycan array binding signal (z-score) (Fuc(a1-4)GlcNAc): 1.32 | glycan array binding signal (z-score) (Fuc(b1-3)GlcNAc): -0.413 | glycan array binding signal (z-score) (Gal(a1-2)Gal): -0.535 | glycan array binding signal (z-score) (Gal(a1-3)Gal): -0.887 | glycan array binding signal (z-score) (Gal(a1-3)Gal(b1-3)GlcNAc): -0.126 | glycan array binding signal (z-score) (Gal(a1-3)Gal(b1-4)Glc): -0.126 | glycan array binding signal (z-score) (Gal(a1-3)Gal(b1-4)GlcNAc): 0.712 | glycan array binding signal (z-score) [28]: -0.168 | glycan array binding signal (z-score) (Gal(a1-3)GalNAc): 0.679 | glycan array binding signal (z-score) [29]: -0.837 | glycan array binding signal (z-score) (Gal(a1-4)Gal(b1-4)Glc): 0.242 | glycan array binding signal (z-score) (Gal(a1-4)Gal(b1-4)GlcNAc): 0.008 | glycan array binding signal (z-score) (Gal(a1-4)GlcNAc): -0.505 | glycan array binding signal (z-score) (Gal(a1-6)Glc): 0.835 | glycan array binding signal (z-score) (Gal(b1-2)Gal): -0.3 | glycan array binding signal (z-score) (Gal(b1-3)Gal): -0.009 | glycan array binding signal (z-score) (Gal(b1-3)GalNAc): 0.248 | glycan array binding signal (z-score) [30]: -0.2 | glycan array binding signal (z-score) [31]: -0.238 | glycan array binding signal (z-score) [32]: -0.402 | glycan array binding signal (z-score) (Gal(b1-3)GlcNAc): -0.584 | glycan array binding signal (z-score) [33]: 0.12 | glycan array binding signal (z-score) [34]: -0.916 | glycan array binding signal (z-score) [35]: -0.535 | glycan array binding signal (z-score) [36]: -0.5

— the supplement of paper PMC8728848
